Data as given in paper PMC5062570 (Nature Communications, 2016).
Values joined by “and” are separate entries in the source; they are usually repeats but may differ in a detail not shown here. Identical values can stand only once. Like-named read-outs stand apart in the source and are kept apart here.

Legend:
[1] = target: PF-7802-labelled proteins in ARPE-19 cells (Homo sapiens, UniProt P05026); conditions: protein ATP1B1 Sodium/potassium-transporting ATPase subunit beta-1 (P05026)
[2] = target: PF-7802-labelled proteins in ARPE-19 cells (Bos taurus, UniProt P02662); conditions: protein no description (P02662); replicates in separate columns
[3] = target: PF-7802-labelled proteins in ARPE-19 cells (Homo sapiens, UniProt P18124); conditions: protein RPL7 60S ribosomal protein L7, P18124
[4] = target: PF-7802-labelled proteins in ARPE-19 cells (Homo sapiens, UniProt Q07021); conditions: protein C1QBP Complement component 1 Q subcomponent-binding protein, mitochondrial (Q07021)
[5] = target: PF-7802-labelled proteins in ARPE-19 cells (Homo sapiens, UniProt P22626)
[6] = target: PF-7802-labelled proteins in ARPE-19 cells (Homo sapiens, UniProt P09493); conditions: TPM1 Tropomyosin alpha-1 chain (P09493)
[7] = target: T1, PF-7802-labelled proteins in ARPE-19 cells (Homo sapiens, UniProt Q12906); conditions: for Median SILAC Ratio (Heavy/Light): one column per replicate
T1 sequence (Q12906 1-894): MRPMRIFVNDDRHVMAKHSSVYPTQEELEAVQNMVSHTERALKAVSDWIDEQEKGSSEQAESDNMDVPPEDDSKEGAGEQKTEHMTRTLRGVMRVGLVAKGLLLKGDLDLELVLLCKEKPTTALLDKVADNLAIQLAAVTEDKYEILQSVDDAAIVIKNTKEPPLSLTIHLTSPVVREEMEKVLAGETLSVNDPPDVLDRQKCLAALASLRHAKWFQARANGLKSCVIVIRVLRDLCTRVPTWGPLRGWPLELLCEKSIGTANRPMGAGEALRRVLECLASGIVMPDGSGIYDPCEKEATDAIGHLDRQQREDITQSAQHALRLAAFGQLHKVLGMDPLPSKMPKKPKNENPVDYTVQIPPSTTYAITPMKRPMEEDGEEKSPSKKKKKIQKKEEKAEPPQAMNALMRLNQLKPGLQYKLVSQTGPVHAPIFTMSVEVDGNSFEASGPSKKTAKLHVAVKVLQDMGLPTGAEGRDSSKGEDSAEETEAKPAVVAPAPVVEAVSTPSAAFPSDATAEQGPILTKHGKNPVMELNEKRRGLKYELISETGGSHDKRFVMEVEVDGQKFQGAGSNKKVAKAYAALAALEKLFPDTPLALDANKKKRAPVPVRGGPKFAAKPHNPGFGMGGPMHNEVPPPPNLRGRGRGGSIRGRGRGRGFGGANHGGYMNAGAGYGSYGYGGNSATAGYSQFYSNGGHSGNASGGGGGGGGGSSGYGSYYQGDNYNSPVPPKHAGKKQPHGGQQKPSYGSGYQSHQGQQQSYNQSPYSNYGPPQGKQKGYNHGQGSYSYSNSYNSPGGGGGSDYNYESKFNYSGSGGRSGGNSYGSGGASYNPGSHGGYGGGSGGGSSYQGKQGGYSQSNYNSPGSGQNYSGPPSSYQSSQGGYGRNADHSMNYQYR

[8] = target: PF-7802-labelled proteins in ARPE-19 cells (Homo sapiens, UniProt Q15746); conditions: for Median SILAC Ratio (Heavy/Light): protein MYLK Myosin light chain kinase, smooth muscle (Q15746), replicates in separate columns
[9] = target: PF-7802-labelled proteins in ARPE-19 cells (Homo sapiens, UniProt P01889); conditions: protein HLA-B HLA class I histocompatibility antigen, B-7 alpha chain (P01889); one column per replicate
[10] = target: PF-7802-labelled proteins in ARPE-19 cells (Homo sapiens, UniProt P62937); conditions: protein PPIA Peptidyl-prolyl cis-trans isomerase A, P62937
[11] = target: PF-7802-labelled proteins in ARPE-19 cells (Homo sapiens, UniProt Q13247); conditions: SRSF6 Serine/arginine-rich splicing factor 6 (Q13247)
[12] = target: PF-7802-labelled proteins in ARPE-19 cells (Homo sapiens, UniProt P30048); conditions: protein PRDX3 Thioredoxin-dependent peroxide reductase, mitochondrial, P30048
[13] = target: PF-7802-labelled proteins in ARPE-19 cells (Homo sapiens, UniProt Q8NBS9); conditions: TXNDC5 Thioredoxin domain-containing protein 5 (Q8NBS9)
[14] = target: PF-7802-labelled proteins in ARPE-19 cells (Homo sapiens, UniProt P56470); conditions: protein LGALS4 Galectin-4 (P56470); replicates in separate columns
[15] = target: PF-7802-labelled proteins in ARPE-19 cells (Homo sapiens, UniProt O43390); conditions: protein HNRNPR Heterogeneous nuclear ribonucleoprotein R (O43390); one column per replicate
[16] = target: PF-7802-labelled proteins in ARPE-19 cells (Homo sapiens, UniProt P16070); conditions: protein CD44 CD44 antigen (P16070)
[17] = target: PF-7802-labelled proteins in ARPE-19 cells (Homo sapiens, UniProt O00592); conditions: protein PODXL Podocalyxin (O00592); replicates in separate columns
[18] = target: PF-7802-labelled proteins in ARPE-19 cells (Homo sapiens, UniProt Q15124); conditions: replicates in separate columns
[19] = target: PF-7802-labelled proteins in ARPE-19 cells (Homo sapiens, UniProt O15260); conditions: SURF4 Surfeit locus protein 4 (O15260)
[20] = target: PF-7802-labelled proteins in ARPE-19 cells (Homo sapiens, UniProt P07737); conditions: protein PFN1 Profilin-1 (P07737); replicates in separate columns
Chain of UniProt P07737 (P07737 whole entry): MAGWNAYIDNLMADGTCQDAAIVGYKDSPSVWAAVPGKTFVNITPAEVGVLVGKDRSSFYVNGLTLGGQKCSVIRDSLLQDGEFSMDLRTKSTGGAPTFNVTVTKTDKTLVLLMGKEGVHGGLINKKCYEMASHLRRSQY

Chain of UniProt P22626 (P22626 whole entry): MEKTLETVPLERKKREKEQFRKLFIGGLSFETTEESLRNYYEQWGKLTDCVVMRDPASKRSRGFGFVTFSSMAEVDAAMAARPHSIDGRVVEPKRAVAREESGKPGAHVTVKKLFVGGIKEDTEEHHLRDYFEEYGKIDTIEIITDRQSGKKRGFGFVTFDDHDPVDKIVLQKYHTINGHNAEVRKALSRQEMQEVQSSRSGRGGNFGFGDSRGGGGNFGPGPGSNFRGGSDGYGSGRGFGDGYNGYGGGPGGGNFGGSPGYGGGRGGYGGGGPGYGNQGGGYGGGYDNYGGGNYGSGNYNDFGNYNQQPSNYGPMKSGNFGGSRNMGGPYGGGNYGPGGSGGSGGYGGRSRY
Chain of UniProt Q15746 (Q15746 whole entry): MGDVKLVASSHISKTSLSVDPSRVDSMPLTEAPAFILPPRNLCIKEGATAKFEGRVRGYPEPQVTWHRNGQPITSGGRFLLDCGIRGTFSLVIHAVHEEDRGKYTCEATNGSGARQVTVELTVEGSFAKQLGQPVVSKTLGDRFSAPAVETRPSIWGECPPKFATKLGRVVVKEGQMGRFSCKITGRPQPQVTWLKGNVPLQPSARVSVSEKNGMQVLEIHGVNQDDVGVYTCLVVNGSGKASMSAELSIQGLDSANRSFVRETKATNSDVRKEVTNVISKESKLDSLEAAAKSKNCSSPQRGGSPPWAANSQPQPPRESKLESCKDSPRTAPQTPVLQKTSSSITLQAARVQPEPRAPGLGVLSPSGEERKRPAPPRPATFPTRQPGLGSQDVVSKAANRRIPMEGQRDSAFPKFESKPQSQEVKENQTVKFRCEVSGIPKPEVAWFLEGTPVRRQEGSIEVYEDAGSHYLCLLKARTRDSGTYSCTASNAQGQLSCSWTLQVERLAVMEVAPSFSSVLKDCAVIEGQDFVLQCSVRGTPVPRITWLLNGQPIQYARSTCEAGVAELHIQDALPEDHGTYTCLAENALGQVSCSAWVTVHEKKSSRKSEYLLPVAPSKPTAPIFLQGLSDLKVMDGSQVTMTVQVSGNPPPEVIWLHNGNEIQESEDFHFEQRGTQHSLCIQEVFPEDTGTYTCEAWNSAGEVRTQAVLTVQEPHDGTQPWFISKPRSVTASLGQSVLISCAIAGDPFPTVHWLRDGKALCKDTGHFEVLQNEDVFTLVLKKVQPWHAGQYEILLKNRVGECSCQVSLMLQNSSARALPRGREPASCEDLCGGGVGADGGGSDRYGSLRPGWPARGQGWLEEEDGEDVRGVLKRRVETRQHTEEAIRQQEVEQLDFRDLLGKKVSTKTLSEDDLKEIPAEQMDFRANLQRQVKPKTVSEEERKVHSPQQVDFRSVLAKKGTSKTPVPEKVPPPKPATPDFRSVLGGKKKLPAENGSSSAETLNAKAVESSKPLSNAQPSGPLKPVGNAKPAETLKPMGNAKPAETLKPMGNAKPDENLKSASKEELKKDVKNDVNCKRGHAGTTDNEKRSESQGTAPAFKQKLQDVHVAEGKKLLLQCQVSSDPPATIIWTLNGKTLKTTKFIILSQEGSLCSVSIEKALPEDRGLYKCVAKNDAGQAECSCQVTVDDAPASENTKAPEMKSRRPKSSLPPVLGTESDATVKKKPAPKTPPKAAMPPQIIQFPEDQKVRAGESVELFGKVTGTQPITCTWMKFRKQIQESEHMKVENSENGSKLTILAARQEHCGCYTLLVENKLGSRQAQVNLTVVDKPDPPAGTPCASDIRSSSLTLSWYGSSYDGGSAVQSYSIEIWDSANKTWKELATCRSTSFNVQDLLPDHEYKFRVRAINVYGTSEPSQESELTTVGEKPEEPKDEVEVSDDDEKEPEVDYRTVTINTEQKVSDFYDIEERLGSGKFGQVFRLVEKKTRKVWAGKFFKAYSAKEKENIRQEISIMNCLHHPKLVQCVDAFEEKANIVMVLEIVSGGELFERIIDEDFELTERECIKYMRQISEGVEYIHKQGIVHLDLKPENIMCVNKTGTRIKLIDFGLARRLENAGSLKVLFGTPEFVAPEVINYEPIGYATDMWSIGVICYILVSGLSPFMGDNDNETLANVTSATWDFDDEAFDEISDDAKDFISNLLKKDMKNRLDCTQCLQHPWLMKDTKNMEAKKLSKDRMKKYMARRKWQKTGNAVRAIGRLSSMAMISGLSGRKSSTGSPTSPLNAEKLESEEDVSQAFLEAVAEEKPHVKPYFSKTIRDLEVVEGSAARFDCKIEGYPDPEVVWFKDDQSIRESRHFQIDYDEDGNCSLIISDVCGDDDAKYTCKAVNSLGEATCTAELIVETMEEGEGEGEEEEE
Chain of UniProt P09493 (P09493 whole entry): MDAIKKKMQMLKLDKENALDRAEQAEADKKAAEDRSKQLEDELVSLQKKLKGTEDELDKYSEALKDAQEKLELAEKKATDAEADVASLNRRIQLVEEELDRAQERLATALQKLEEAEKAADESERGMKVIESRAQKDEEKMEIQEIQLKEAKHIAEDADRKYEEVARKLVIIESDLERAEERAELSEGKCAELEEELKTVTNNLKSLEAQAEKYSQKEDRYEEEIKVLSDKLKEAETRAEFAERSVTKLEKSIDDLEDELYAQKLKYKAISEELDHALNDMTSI
Chain of UniProt Q13247 (Q13247 whole entry): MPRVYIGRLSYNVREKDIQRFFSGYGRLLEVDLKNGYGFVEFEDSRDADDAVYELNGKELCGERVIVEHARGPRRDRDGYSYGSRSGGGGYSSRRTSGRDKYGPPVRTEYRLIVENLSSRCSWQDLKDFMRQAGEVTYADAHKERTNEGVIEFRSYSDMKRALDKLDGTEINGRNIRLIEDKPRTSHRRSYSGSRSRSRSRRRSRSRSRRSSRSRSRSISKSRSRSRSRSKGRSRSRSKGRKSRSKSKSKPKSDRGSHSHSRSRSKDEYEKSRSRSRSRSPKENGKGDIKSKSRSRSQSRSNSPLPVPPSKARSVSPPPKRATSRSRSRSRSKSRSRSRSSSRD
Chain of UniProt P56470 (P56470 whole entry): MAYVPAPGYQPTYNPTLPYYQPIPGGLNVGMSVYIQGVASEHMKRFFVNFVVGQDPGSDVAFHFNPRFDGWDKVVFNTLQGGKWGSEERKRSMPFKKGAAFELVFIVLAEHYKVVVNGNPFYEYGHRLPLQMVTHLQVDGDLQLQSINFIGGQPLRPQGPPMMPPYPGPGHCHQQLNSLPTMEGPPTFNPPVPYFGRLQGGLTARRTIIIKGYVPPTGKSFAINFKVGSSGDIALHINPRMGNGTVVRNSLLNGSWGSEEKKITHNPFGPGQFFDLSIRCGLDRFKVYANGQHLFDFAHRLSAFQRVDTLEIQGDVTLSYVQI
Chain of UniProt O43390 (O43390 whole entry): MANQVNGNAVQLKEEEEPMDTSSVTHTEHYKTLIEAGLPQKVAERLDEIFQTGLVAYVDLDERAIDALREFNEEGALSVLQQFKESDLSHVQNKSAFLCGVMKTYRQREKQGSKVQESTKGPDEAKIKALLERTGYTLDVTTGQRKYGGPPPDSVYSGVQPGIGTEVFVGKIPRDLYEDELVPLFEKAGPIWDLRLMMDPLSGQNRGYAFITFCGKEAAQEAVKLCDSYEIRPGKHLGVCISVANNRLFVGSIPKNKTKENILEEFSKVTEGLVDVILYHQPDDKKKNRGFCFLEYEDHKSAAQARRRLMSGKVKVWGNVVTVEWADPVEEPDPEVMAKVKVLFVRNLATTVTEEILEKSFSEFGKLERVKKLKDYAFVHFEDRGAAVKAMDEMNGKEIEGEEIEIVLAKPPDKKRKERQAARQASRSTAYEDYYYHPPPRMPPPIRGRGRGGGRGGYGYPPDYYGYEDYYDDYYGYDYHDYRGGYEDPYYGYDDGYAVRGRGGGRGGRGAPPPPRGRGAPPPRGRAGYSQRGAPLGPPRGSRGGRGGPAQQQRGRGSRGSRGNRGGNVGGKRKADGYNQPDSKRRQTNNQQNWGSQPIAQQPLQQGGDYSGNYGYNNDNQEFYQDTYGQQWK
Chain of UniProt Q15124 (Q15124 whole entry): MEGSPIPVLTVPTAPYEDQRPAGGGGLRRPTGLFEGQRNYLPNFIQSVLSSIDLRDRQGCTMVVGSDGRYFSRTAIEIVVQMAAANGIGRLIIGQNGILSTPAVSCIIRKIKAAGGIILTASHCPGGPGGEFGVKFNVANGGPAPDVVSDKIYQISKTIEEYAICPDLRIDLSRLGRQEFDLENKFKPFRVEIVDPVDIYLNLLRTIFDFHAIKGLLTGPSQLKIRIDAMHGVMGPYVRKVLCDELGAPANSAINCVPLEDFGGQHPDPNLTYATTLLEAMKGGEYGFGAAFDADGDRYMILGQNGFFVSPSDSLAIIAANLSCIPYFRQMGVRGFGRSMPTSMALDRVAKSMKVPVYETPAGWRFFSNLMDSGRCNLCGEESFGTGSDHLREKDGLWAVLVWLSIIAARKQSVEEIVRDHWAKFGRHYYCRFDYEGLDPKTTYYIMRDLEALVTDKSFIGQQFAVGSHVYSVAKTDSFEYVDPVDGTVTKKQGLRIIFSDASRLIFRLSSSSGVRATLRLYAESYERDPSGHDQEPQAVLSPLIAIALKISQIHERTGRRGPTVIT
Chain of UniProt O15260 (O15260 whole entry): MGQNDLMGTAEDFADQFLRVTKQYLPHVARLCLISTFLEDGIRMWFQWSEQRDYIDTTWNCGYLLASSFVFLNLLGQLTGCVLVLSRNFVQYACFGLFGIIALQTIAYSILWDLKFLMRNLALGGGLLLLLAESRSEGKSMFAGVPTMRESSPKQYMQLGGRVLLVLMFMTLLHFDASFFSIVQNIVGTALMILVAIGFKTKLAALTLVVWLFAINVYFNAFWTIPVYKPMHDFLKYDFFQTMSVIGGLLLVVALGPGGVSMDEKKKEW
Chain of UniProt P62937 (P62937 whole entry): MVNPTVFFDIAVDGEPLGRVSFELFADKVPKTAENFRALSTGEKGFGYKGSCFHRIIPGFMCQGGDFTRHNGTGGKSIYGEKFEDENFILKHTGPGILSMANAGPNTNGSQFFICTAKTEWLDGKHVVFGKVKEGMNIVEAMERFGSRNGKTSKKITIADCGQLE

Structure (SMILES) | Median SILAC Ratio (Heavy/Light) [1] | Median SILAC Ratio (Heavy/Light) [2] | Median SILAC Ratio (Heavy/Light) [3] | Median SILAC Ratio (Heavy/Light) [4] | Median SILAC Ratio (Heavy/Light) [6] | Median SILAC Ratio (Heavy/Light) [8] | Median SILAC Ratio (Heavy/Light) [9] | Median SILAC Ratio (Heavy/Light) [11] | Median SILAC Ratio (Heavy/Light) [12] | Median SILAC Ratio (Heavy/Light) [14] | Median SILAC Ratio (Heavy/Light) [15] | Median SILAC Ratio (Heavy/Light) [16] | also measured
CNC1CCN(C(=O)C[C@@H](Cc2ccccc2)C(=O)N[C@@H](CSC)C(=O)N[C@@H](CC2CCCCC2)[C@@H](O)C(=O)OC(C)C)CC1 [CP-108671, reference compound] | 1.281 | 29.4002 | 1.745 | 1.222 | 1.679 | 1.1965 | 1.249 | 0.63 | 1.412 | 0.6307 | 0.8378 | 1.048 | SILAC ratio (DMSO/CP-108671) ([5]; P22626 HNRNPA2B1 Heterogeneous nuclear ribonucleoproteins A2/B1): 0.94; Median SILAC Ratio (Heavy/Light) ([5]; protein HNRNPA2B1 Heterogeneous nuclear ribonucleoproteins A2/B1 (P22626), one column per replicate): 1.089 and 0.9918; SILAC ratio (DMSO/CP-108671) ([7]; Q12906 ILF3 Interleukin enhancer-binding factor 3): 0.96; Median SILAC Ratio (Heavy/Light) ([7]; protein ILF3 Interleukin enhancer-binding factor 3 (Q12906)): 1.038; SILAC ratio (DMSO/CP-108671) ([8]; Q15746 MYLK Myosin light chain kinase, smooth muscle): 0.84; Median SILAC Ratio (Heavy/Light) [10]: 1.663; Median SILAC Ratio (Heavy/Light) [13]: 1.019; Median SILAC Ratio (Heavy/Light) [17]: 1.034; Median SILAC Ratio (Heavy/Light) ([18]; protein PGM5 Phosphoglucomutase-like protein 5 (Q15124)): 1.603
Cc1cc([C@H]2C[C@H]3[C@@H](C)SC(N)=N[C@@]3(c3ccc(F)cc3F)CO2)on1 [PF-9283] | 1.257 | 69.6913 | 1.695 | 1.348 | 1.8079 and 1.479 | 1.138 | 1.51 | 0.633 | 1.161 | 1.347 | 0.8073 | 1.27 and 0.8524 | Median SILAC Ratio (Heavy/Light) [19]: 0.9569; Median SILAC Ratio (Heavy/Light) ([7]; […]): 1.229; Median SILAC Ratio (Heavy/Light) ([18]; […]): 0.7945; Median SILAC Ratio (Heavy/Light) [20]: 1.454 and 1.047 and 0.8125
